Results reported in paper PMC5515408.
The list shows a part of the results. At the low end of the ranking, values are background and their order means little.

Tested on: MYC (p64) + MAX (p21), in MYC:MAX
Experiment: protein-binding microarray (anti-MAX antibody)
Details: PBM: 15 mM Tris-HCl pH 7.5, 100 mM KCl, 0.075% NP40, 7.5 mM beta-mercaptoethanol, 375 ng/ul BSA, 8 ng/ul poly(dA-dT):(dA-dT), 550 ng complex, 60 min, room …; high values mean tight binding; double strand, one strand shown; sequences stand for … in CCGGC…TTAATAGCTAAGATTACTATATCGACG

Row | Sequence | binding signal (log2 normalized fluorescence)
1 | TGACACCAAGTA | 0.0437
2 | TGAATGATAGTA | 0.131
3 | TGAAAATTGGTA | -0.193
4 | TGACACTAGGTA | 0.221
5 | TGATTAACGGTA | -0.00324
6 | TGAGCGTGGGTA | 0.524
7 | GGACACGTGTGA | 0.779
8 | TGAGGGGGGGTA | 0.784
9 | TGAGTTCACGTA | 0.0567
10 | TAACACGTGGAA | 0.812
11 | TGATTGGTTGTA | -0.0476
12 | TGACCAACCGTA | 0.0787
13 | TGAGCTTGAGTA | -0.0837
14 | TGAGCAGTGGTA | -0.00429
15 | TGATATTTAGTA | -0.226
16 | TGACACGTGGGT | 0.725
17 | TGAAGGGTAGTA | -0.19
18 | TGAACACTAGTA | 0.244
19 | TGATATGTAGTA | -0.158
20 | TGACGAGTCGTA | 0.271
21 | TGAACCGCTGTA | 0.0828
22 | TGACGGCTCGTA | -0.157
23 | TGACAGCATGTA | 0.547

Row | Sequence | binding signal (log2 normalized fluorescence)
24 | TGAGTTAGAGTA | -0.335
25 | TGATAGGGTGTA | -0.0201
26 | TGACTAGCTGTA | -0.0161
27 | TGAGGCGATGTA | 0.183
28 | TGAATATCTGTA | -0.113
29 | TGAGGGCTCGTA | -0.0239
30 | TGAGACGCGGTA | 0.217
31 | TGAGTGCGTGTA | 0.518
32 | TGACAAGGAGTA | 0.244
33 | TGACCTTGCGTA | 0.232
34 | TGACAAGTGGTT | 0.235
35 | TGACCCTAAGTA | -0.0394
36 | TGAGTCCACGTA | 0.214
37 | TGAGCAGGTGTA | 0.313
38 | TGAGTACAAGTA | 0.0729
39 | TGGCACAAGGTA | 0.389
40 | TGATGGCGGGTA | 0.232
41 | TGACTCCGCGTA | 0.24
42 | TGATCCCGGGTA | 0.0486
43 | TGAGAACGCGTA | 0.268
44 | TGAGACAGGGTA | -0.0086
45 | TGAATAGCTGTA | -0.072
46 | TGAGGATGTGTA | -0.01

Row | Sequence | binding signal (log2 normalized fluorescence)
47 | TGAATTCTCGTA | -0.00607
48 | TGATGGATAGTA | 0.0458
49 | TGATAGGGAGTA | -0.118
50 | TGAGCCATCGTA | 0.0938
51 | TGATGCTCGGTA | 0.254
52 | TGAGTGTTTGTA | 0.0241
53 | TGAAGTGACGTA | 0.204
54 | TGAGCAGATGTA | 0.417
55 | TGAACCTCGGTA | 0.0976
56 | TGATTAAGTGTA | -0.0933
57 | TGGACCGTGGTA | 0.269
58 | TGATAGAGTGTA | -0.0737
59 | TGATGGGTGGTA | 0.276
60 | TGACACTTCGTC | 0.129
61 | TGATCTTACGTA | 0.0273
62 | TGATGAAAAGTA | 0.0763
63 | TGAAGCGTGTTA | 0.719
64 | TCACACGTGGTA | 0.998
65 | TGATCTGCGGTA | 0.0671
66 | TGACCCCAAGTA | 0.0379
67 | GGACTCGTGGTA | 0.577
68 | TGAGTTCCGGTA | -0.0712
69 | TGAGACGTGATA | 0.339

Row | Sequence | binding signal (log2 normalized fluorescence)
70 | TGAGCTAACGTA | -0.00828
71 | TGACAATCCGTA | 0.143
72 | TGAAACGCAGTA | 0.155
73 | TGAGCGATGGTA | -0.0926
74 | TGAAAGCTTGTA | -0.0546
75 | TGAAGGCAGGTA | -0.0834
76 | TGAGGATAGGTA | -0.0864
77 | TGAAGCTTTGTA | 0.0469
78 | TGATTAGCAGTA | -0.255
79 | TGAATTCCAGTA | 0.0106
80 | TGAACTAAAGTA | -0.027
81 | AGATTTCGGACA | -0.0672
82 | TGAAGCCACGTA | 0.19
83 | TGAGTTGGAGTA | -0.241
84 | TGACACCTGGAA | 0.355
85 | TGACAGGTGCTG | 0.49
86 | TGACGTCTCGTA | 0.0793
87 | TGACACGGTATA | 0.377
88 | TGAATCTAGGTA | 0.163
89 | TGAATCCTAGTA | -0.0848
90 | AGACACGCAGTA | 0.352
91 | CAAATGAGAGCC | 0.034
92 | TGACAGATAGTA | 0.0298

Row | Sequence | binding signal (log2 normalized fluorescence)
93 | TGATCGATCGTA | -0.0866
94 | TGAAGATGTGTA | 0.0913
95 | TGACTGGGGGTA | 0.49
96 | TGAAATTACGTA | 0.142
97 | TGATCGTCAGTA | 0.103
98 | TGACCAGAGGTA | 0.0255
99 | TGAGATTGGGTA | -0.291
100 | TTACACGTTGTC | 0.589
101 | TGACGTCCTGTA | 0.133
102 | TGACACTTGGCA | 0.277
103 | TGATGGCAAGTA | 0.167
104 | TGAGGATTAGTA | -0.0726
105 | TGACTTTGTGTA | 0.0708
106 | TGAGTGGATGTA | 0.221
107 | TGAGTGAGGGTA | 0.097
108 | TGACTTTCTGTA | -0.0198
109 | TGAGTACTCGTA | 0.116
110 | TGACGCGTGGCA | 0.655
111 | TGATCTTCCGTA | -0.00711
112 | TGAGGCACGGTA | 0.25
113 | TGAAGCACTGTA | 0.197
114 | TGACCAACTGTA | 0.0767
115 | TGAGGTCAAGTA | -0.156

Row | Sequence | binding signal (log2 normalized fluorescence)
116 | TGAAAAGCCGTA | -0.118
117 | TGAGCCGATGTA | -0.151
118 | GTCTCAATTATA | -0.0911
119 | TGAAAACTCGTA | 0.171
120 | TGACCTGGGGTA | 0.223
121 | TGACCCGCAGTA | 0.0933
122 | TGAGCATCGGTA | -0.05
123 | TGATGGCGCGTA | 0.191
124 | TGACTCCTGGTA | 0.147
125 | TGAGTGCTTGTA | 0.125
126 | TGAAACGGGGTA | 0.292
127 | TGATTAGGCGTA | -0.145
128 | TGATAAGTGGTA | -0.0234
129 | TGACACCTTGTA | 0.346
130 | TGATACTCTGTA | 0.0392
131 | TGAACTATCGTA | 0.0955
132 | TGACGATCGGTA | -0.0724
133 | TGAATCAACGTA | 0.211
134 | AGGCACGTGGTA | 0.815
135 | TGAGTATTCGTA | -0.242
136 | TGATAATGGGTA | 0.0617
137 | TGAAAGGAAGTA | -0.0971
138 | TGAAGAGATGTA | 0.0426
